Data published in ChEMBL document CHEMBL1201862, “PubChem BioAssay data set” (2004).
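A five-concentration, 48-hour dose response in 96-well plates underlies each endpoint, interpolated linearly between surrounding concentrations. GI50: concentration for 50% inhibition of growth.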 Active and inactive are the calls of the source. Rule as the data show it: active = GI50 up to about 1.1 µM and inactive = higher.

System: NCI-H322M
Experiment: NCI-60 cell line screen, 48 h

Compound	GI50
COc1cccc2c1C(=O)c1c(O)c3c(c(O)c1C2=O)CC(O)(C(=O)CO)CC3OC1CC(N)C(I)C(C)O1 (stereo not drawn)	inactive: 15 µM
CC(=O)C1(/N=N/c2ccc(S(N)(=O)=O)cc2)CCOC1=O (stereo not drawn)	inactive: > 100 µM
CN(C)CCCNC(=O)c1c(O)c2ccccc2[nH]c1=O	inactive: > 100 µM
C[N+]1([O-])[C@H]2CC(OC(=O)[C@H](CO)c3ccccc3)C[C@H]1[C@H]1O[C@H]12 (stereo partly drawn)	inactive: > 100 µM
CC1C=C(CCCCCCCCCCCC[C@@H](O)[C@@H]2CC[C@@H]([C@@H]3CC[C@@H](C(O)CCCCCCCCCCCCC4=C[C@H](C)OC4=O)O3)O2)C(=O)O1 (stereo partly drawn)	inactive: > 75.9 µM
COc1ccc(/C=C(\NC(=O)c2ccccc2)C(=O)NN(C)c2ccnc3cc(Cl)ccc23)cc1OC	inactive: 41.7 µM
Nc1nc(Cl)cc(NCC2(CO)CC(CCCCc3ccccc3)C2)n1 (stereo not drawn)	inactive: 92.9 µM
Cn1c2c(c3ccccc31)CCN1C(=O)C34CCCC3CC21S4 (stereo not drawn)	inactive: > 100 µM
O=C(O)CCSC(CC1(c2ccc(Cl)cc2)NC(=O)CCS1)c1ccccc1 (stereo not drawn)	inactive: 16.6 µM
N/C(=N\O)N/N=C/c1cc(Br)cc(Br)c1O	inactive: 2.55 µM
CCCCCN1CCN(c2ncccn2)CC1	inactive: > 100 µM
CC(=O)Oc1ccc(/C=C/C(=O)OCCCOC(=O)/C=C/c2ccc(OC(C)=O)c(OC(C)=O)c2)cc1OC(C)=O	inactive: > 100 µM
O=C1C(OC(=O)c2ccccc2)=C(c2ccc(O)cc2)C(=O)C(OC(=O)c2ccccc2)=C1c1ccc(O)cc1	inactive: 67.5 µM
CN(C)CCNC(=O)c1cccc2ncc(-c3ccccc3)nc12	inactive: 8.49 µM
O=c1/c(=C/c2ccccc2[N+](=O)[O-])sc2nnc(-c3cccnc3)n12	inactive: > 100 µM
C[N+]1(C)C[C@@H](O)C[C@@H]1C(=O)[O-] [BETONICINE]	inactive: > 100 µM
Cc1ccccc1C(C#N)/C(=N/NC(=O)C(=O)NN)C(=O)Nc1cccc(C(F)(F)F)c1 (stereo not drawn)	inactive: > 100 µM
CC1SCc2nc3ccccc3n21 (stereo not drawn)	inactive: > 100 µM
Cc1noc(NS(=O)(=O)c2ccc(NC(=O)c3ccc4nc5ccccc5c(Nc5ccc(S(=O)(=O)Nc6onc(C)c6C)cc5)c4c3)cc2)c1C	inactive: > 100 µM
CC(C)OC(=O)C(NC(=O)C(CC(=O)OCc1ccccc1)NC(=O)OCc1ccccc1)NC(=O)C1C(C)(C)CCC1(C)C (stereo not drawn)	inactive: 28.9 µM
CCC1c2[nH]c3ccccc3c2C[C@H]2C(=O)N3CCC[C@H]3C(=O)N12 (stereo partly drawn)	inactive: > 100 µM

Compound	GI50
C=C(C)C12OC1[C@@]1(C)C(=CC2=O)CCC(O)[C@@H]1C (stereo partly drawn)	inactive: 2.86 µM
CC(=O)OC1OC(c2ccoc2)C[C@@]12C1CCC3O[C@]3(C)[C@]1(C)[C@H](OC(C)=O)[C@H](OC(C)=O)[C@H]2C (stereo partly drawn)	inactive: > 37.5 µM
O=c1c2cccnc2ncn1CCCN1CCCC1	inactive: > 100 µM
COc1ccccc1CC(C)N (stereo not drawn)	inactive: > 100 µM
CN1CCN(Cc2ccc(C(=S)Nc3ccccc3)s2)CC1	inactive: > 100 µM
Cn1c(=O)c2c(nc(NCCCCl)n2CC(=O)O)n(C)c1=O	inactive: > 100 µM
CCOC(=O)c1cc2c(cn1)[nH]c1cccc(N)c12	inactive: > 100 µM
CCc1nc(N)c2nc(-c3cccs3)oc2n1	inactive: > 100 µM
N=C(N)NS(=O)(=O)c1ccc(NCc2c3ccccc3nc3ccccc23)cc1	inactive: 58.1 µM
O=C1C(c2c(O)[nH]c3ccc([N+](=O)[O-])cc23)=Nc2ccccc21	inactive: > 100 µM
CCOc1ccc(/C(Cl)=C(\C=O)c2ccc(OC)c(OC)c2)cc1OCC	inactive: 52.6 µM
O=C(COc1ccccc1Cl)N1N=C(c2ccc(Cl)cc2)CC1(O)c1ccccc1 (stereo not drawn)	inactive: > 100 µM
CC(Oc1ccccc1Cl)C(=O)NN1C(=O)CSC1c1ccccc1 (stereo not drawn)	inactive: > 100 µM
COc1cccc2c1-c1nc(N)c3c(OC)cccc3c1C2=O	inactive: 44 µM
C=C1C(=O)OC2CCN3CC=C(COC(=O)C(C)(O)C4(CO4)C1C)C23 (stereo not drawn)	inactive: > 100 µM
[N-]=[N+]=CC(=O)CCC(NC(=O)C(CCC(=O)C=[N+]=[N-])NC(=O)CCC(N)C(=O)O)C(=O)O (stereo not drawn)	inactive: > 100 µM
CC(C)(C)OC(=O)NCC(c1c[nH]c2ccc(Br)cc12)c1c[nH]c2ccc(Br)cc12	inactive: 8.38 µM
C(=C\c1ccc2ccccc2c1Nc1ccccc1)/c1ccccc1	inactive: 56.4 µM
C/C(=N\Nc1nc2ccccc2o1)c1cc2ccccc2cn1	active: < 0.0228 µM
c1ccc2c(OCCSCCCCCCCCCCSCCOc3cccc4ccccc34)cccc2c1	inactive: > 100 µM
CO[C@@H]1C[C@H]2[C@@H]3CC[C@H]([C@H](C)COC(C)=O)[C@@]3(C)CC[C@@H]2[C@@]2(C)CC[C@H]3C[C@]312	inactive: > 100 µM

Compound	GI50
Cc1cc2c(=Cc3ccc(N(C)C)cc3)c3ccccc3n2[n+]1C	inactive: 1.5 µM
C=C(Nc1nc2ccc(C)cc2s1)C(=O)C(CC)C(=O)C(CC)CC1C(=O)NC(=O)NC1=O (stereo not drawn)	inactive: > 100 µM
O=C(/C=C/c1ccccc1)Oc1ccc(C(=O)/C=C/c2ccccc2)cc1	inactive: 13.5 µM
Cc1cc(Br)ccc1/N=N/C1C(=O)ON=C1c1ccccc1 (stereo not drawn)	inactive: > 100 µM
CC12CC(=O)Nc3ccccc3N1C(c1ccccc1)=NO2 (stereo not drawn)	inactive: > 100 µM
COc1ccc(-c2nc(SCC(=O)N/N=C/c3ccc(N(C)C)cc3)[nH]c2-c2ccc(OC)cc2)cc1	inactive: > 100 µM
COc1nc2c(c(=O)n1C)N[C@H]1[C@H](OC(C)=O)[C@@H](OC(C)=O)CO[C@H]1N2	inactive: > 100 µM
CC(C)(C)N/N=C(\Cc1occc(=O)c1O)C(=O)Nc1ccc([N+](=O)[O-])cc1[N+](=O)[O-]	inactive: > 100 µM
COc1ccc(/C=C\c2cc(OC)c(O[Si](C)(C)C(C)(C)C)c(OC)c2)cc1	inactive: > 100 µM
Nc1nc(Cl)c2ncn(Cc3cccc(CCl)c3)c2n1	inactive: 11 µM
Cc1nc2ccccc2nc1CC(=O)C(=O)Nc1ccc(Cl)cc1Cl	inactive: > 100 µM
Cc1nc(Nc2ccc(Cl)cc2)sc1C(=O)NNC(=O)C(=O)NN	inactive: 30.8 µM
CN1C(=O)N/C(=C\c2ccc(S(=O)(=O)N/N=C\C(O)C(O)C(O)CO)cc2)C1=O (stereo not drawn)	inactive: > 100 µM
Oc1ccc(-c2nc3ccc(Cl)cc3s2)cc1	inactive: 17.5 µM
COC(=O)C(I(OS(=O)(=O)c1ccc(C)cc1)c1ccccc1)=P(c1ccccc1)(c1ccccc1)c1ccccc1	inactive: 29.2 µM
O=S(=O)(Nc1ccc2ccc3cccc4ccc1c2c34)c1ccccc1	inactive: > 100 µM
CN(C)CCn1c(=O)c2ccc(NCCNCCO)c3c(=O)c4ccccc4n(c1=O)c23	active: 0.209 µM
O=C(N/C(=C/c1ccc(Cl)cc1)c1nc2ccccc2c(=O)n1Nc1ccc([N+](=O)[O-])cc1[N+](=O)[O-])c1ccccc1	inactive: > 100 µM
O=c1c2ccccc2c(=O)c2c1c1[nH]c3ccccc3c1c1c(=O)c3ccccc3c(=O)c21	inactive: > 100 µM
C=C(Cl)[C@](Cl)(CBr)CC[C@@H](Br)C(C)(C)Cl [HALOMON]	inactive: 1.49 µM
O=C(/C=C/c1ccc(Cl)c(Cl)c1)c1ccc2ccccc2c1	inactive: > 100 µM
